Test results from PubChem BioAssay (NCI).
Several values for one entry are separate records, joined by “and”; a condition that tells them apart may be missing. Equal values may be shown once.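 Cultured in 96-well plates, cells were exposed to test compound for 48 hours across five concentrations. Here, GI50 denotes the concentration required for 50% inhibition of growth. The concentration for full growth arrest is given as TGI.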 Peptide text beside a SMILES is read from it. * marks the point of attachment. Boc = CC(C)(C)OC(=O)*; tBu = CC(C)(C)*

System: NCI-H322M lung
Assay: DTP human tumour cell line panel, 48 h

Compound | TGI | GI50
C=C1C(=O)O[C@@H]2[C@H]1C[C@H](I)[C@@]1(C)CC[C@H](O1)[C@](C)(I)CCCC(C)[C@@H]2O (stereo partly specified) | 29.8 µM | 
CCOC(=O)[C@@H]1C[C@@H]1c1ccc(O)c(O)c1 | > 100 µM | 
CCOP(=O)(/C=C/n1cnc2c(=O)n(C(C)=O)c(N)nc21)OCC | > 100 µM | 
Cc1cc(OC(=O)Nc2ccc(Cl)cc2)ccc1C(=S)Nc1ccccc1 | > 100 µM | 
CC1(C)OC2OC(COC(=O)C(c3ccccc3)c3ccccc3)C3OC(C)(C)OC3C2O1 (stereo unspecified) | > 100 µM | 
CCCCOc1ccc(S(=O)(=O)/N=C(\N)Nc2ccc(Cl)cc2)cc1 | 27.8 µM | 
CN1CC[C@]23c4c5ccc(O)c4OC2c2[nH]ncc2C[C@H]3[C@H]1C5 (stereo partly specified) | > 100 µM | 
CSc1nc(C)cc(=O)n1C1OC(COC(C)=O)C(OC(C)=O)C(OC(C)=O)C1OC(C)=O (stereo unspecified) | > 100 µM | 
Cc1cc2c(cc1C)[n+](=O)c(C(=O)/C=C/c1ccccc1[N+](=O)[O-])c(C)n2[O-] | > 100 µM | 
Nc1ncnc2sc(Nc3ccccc3)nc12 | > 100 µM | 
C=CC1(O)CCCC=C1COCc1ccccc1 (stereo unspecified) | > 100 µM | 
CC(N)=O.[Cl][Pt][Cl].[NH-]c1ccn(C2OC(CO)C(O)C2O)c(=O)n1 (stereo unspecified) | > 100 µM | 
Nc1nc(-c2ccccc2)cc(-c2cc(Cl)ccc2O)n1 | > 100 µM | 
CC1CCN(c2cc(-c3cc4ccccc4o3)oc(=O)c2C#N)CC1 | > 100 µM | 
c1ccc2c(c1)[O][Sn][O]2 | > 150 µg/mL | 71.8 µg/mL
C=CC(C)(O)CCC1C(=C)C(O)CC2C(C)(C)CCCC12C (stereo unspecified) | 44.4 µM | 
CCOP(=O)(/C=C\n1ccc(=O)[nH]c1=O)OCC | > 100 µM | 
O=C(/C=C\c1ccc(/C=C/C(=O)Nc2cccc(C3=NCCCN3)c2)cc1)Nc1cccc(C2=NCCCN2)c1 | > 100 µM | 
Cc1ccc2oc3c(ccc(=O)n3C)c(=O)c2c1 | > 100 µM | 
N#Cc1cccc(C2C3=C(COC3=O)N(CCO)c3cc4c(cc32)CCC4)c1 (stereo unspecified) | > 50 µM | 0.274 µM
Cc1ccc(O)cc1Nc1ccnc2cc(-c3ccccn3)ccc12 | 5.05 µM | 0.911 µM
CCOc1cc2c(cc1O)CC[C@@H]1[C@@H]2CC[C@]2(C)[C@@H](O)CC[C@@H]12 | 58.4 µM | 
C/C(CC(=O)Nc1cccc(Cl)c1C)=N\N=C(N)N | > 100 µM | 
O=C(/C=C/c1cccc(Oc2ccc(Cl)cc2)c1)c1ccccc1 | 263 µM | 115 µM
C=C(Cl)C(Cl)(CBr)CCC(Br)C(C)(C)Cl (stereo unspecified) | 3.26 µM and 4.91 µM and 6.83 µM | 

Compound | TGI | GI50
Brc1ccc(-c2nc(-c3ccc(Br)cc3)n(-c3ccccc3)n2)cc1 | > 100 µM | 
CC1=NN(C(=O)c2ccc(C)cc2)C(=O)C1N=Nc1ccccc1C(=O)O (stereo unspecified) | > 100 µM | 
CCCCOCCOCCOC1=C(Cl)C(=O)c2c(O)ccc(O)c2C1=O | 3.02 µM | 
O/N=C1\CSc2ccccc2C1 | > 100 µM | 
CC1(CCCCO)C=CC(S(=O)(=O)c2ccccc2)CC1 (stereo unspecified) | 20.1 µM | 
CC(=O)Nc1sccc1S(=O)(=O)c1ccc(Cl)cc1 | > 100 µM | 
O=C(Nc1ccc(Cl)c(C(F)(F)F)c1)C(=O)c1c(O)c2ccccc2oc1=O | > 100 µM | 
O=[N+]([O-])c1ccc(/C=C\c2ccc3c(c2)OCO3)c([N+](=O)[O-])c1 | 41.6 µM | 
Cn1cnnc1SC(F)(F)c1nc2ccccc2o1 | > 100 µM | 
CN1CCOCCOCCOc2ccccc2NC(=O)c2nc(cnc2N)-c2ccc(cc2)S1(=O)=O | > 100 µM | 3.69 µM
CCc1c(C#N)c(SC(C(N)=O)c2ccccc2)nc(N2CCC(N)CC2)c1C#N (stereo unspecified) | 29.6 µM | 14.7 µM
CCN(CCCl)c1cc(CN(C)C)cc(NC(=O)c2cc(C(=O)Nc3cc(CN(C)C)cc(N(CC)CCCl)c3)n(C)n2)c1 | 3.46 µM | 
CC(C)=NNc1ncnc2nc[nH]c12 | > 50.1 µM | 
CC1(C)N=C(N)N=C(N)N1c1ccc(OCCCCNC(=O)Nc2cccc(S(=O)(=O)F)c2)c(Cl)c1 | > 100 µM | 3.21 µM
COc1cccc2c1[C@H]1OC(=O)NC1CCCCC2 (stereo partly specified) | > 100 µM | 
COc1cc2c(cc1OC)C(SC)C(=O)N(Cc1cccc(OC)c1OC)CC2 (stereo unspecified) | > 100 µM | 
O=S(=O)(NCCCNc1nccc(-c2c(-c3cccc(F)c3)nc3occn23)n1)c1cccc2ccccc12 | > 100 µM | > 100 µM
COc1cccc(-c2[nH]c3cc4c(cc3c(=O)c2C(=O)O)OCO4)c1 | > 100 µM | 
C=CC[PH+](c1ccccc1)c1ccccc1.C=CC[PH+](c1ccccc1)c1ccccc1.[Pt+2].[S-]c1ncccn1.[S-]c1ncccn1 | > 100 µM | > 100 µM
CCN1C(=O)N2C(OC)c3ccccc3C(Br)C2(OC)C1=O (stereo unspecified) | > 100 µM | 
Clc1cccc(C2SCc3nc4ccccc4n32)c1 (stereo unspecified) | > 100 µM | 
Cn1c(SCc2c[nH]c3ccccc23)nnc1-c1ccc(Cl)cc1Cl | 94 µM | 
CCN(CC)CCS(=O)(=O)CCNc1ccnc2cc(Cl)ccc12 | > 87.7 µM | 11.5 µM
CC(OC(C)(C)C)C(NC(=O)C(N)CCCCNC(=O)OC(C)(C)C)C(=O)NC(Cc1ccccc1)C(=O)O (stereo unspecified) (H-Lys(Boc)-Thr(tBu)-Phe-OH; configuration not given here) | > 100 µM | 
CCCCC1Cc2cc(OC)ccc2-c2n1c1cc(OC)ccc1[n+]2C (stereo unspecified) (tested in a mixture with another compound) | 57.8 µM | 

Compound | TGI | GI50
CC/C(=C(/c1ccc(/C=C/C(=O)O)cc1)c1ccc2[nH]ncc2c1)c1ccc(F)cc1Cl | 30.8 µM | 15.8 µM
NNC(=O)N/N=C1\CNC(=O)C(=O)C1c1nc2ccccc2s1 (stereo unspecified) | > 100 µM | 
COc1ccc(/C=N/n2c(Cc3ccccc3)n[nH]c2=O)cc1 | > 100 µM | 
CN(C)CCNC(=O)c1cccc2cc3ccc4ccccc4c3nc12 | 1.27 µM | 
Cc1c(C)c2ccc(OC(C)C(=O)O)cc2oc1=O (stereo unspecified) | > 100 µM | 
CSC1(Cc2ccccn2)C(=O)Nc2cccc([N+](=O)[O-])c21 (stereo unspecified) | > 100 µM | 
CC(C)(C)c1cc(C(OCCl)(C(F)(F)F)C(F)(F)F)c2c(c1)C(C(F)(F)F)(C(F)(F)F)OC21c2ccccc2C(=O)c2ccccc21 | > 100 µM | 
CCN(CCNc1ccc(C)c2sc3cc(Cl)ccc3c(=O)c12)CC(C)(C)O | 23.7 µM | 6.64 µM
COc1ccc2c3c(c(C(=O)O)oc13)C(CCC(=O)O)CC2 (stereo unspecified) | > 100 µM | 
CC(=O)OC1CC[C@@]2(C)C(=CC[C@@H]3[C@@H]2CC[C@]2(C)C(OC(C)=O)[C@H](n4ccnc4)C[C@@H]32)C1 (stereo partly specified) | > 100 µM | 
N#C[C@H](C(=O)c1ccccc1F)c1nc2ccccc2[nH]1 | > 100 µM | 
CC1=NN(c2nc(N)nc(/C=C\c3ccccc3)n2)C(C)(C)C1 | 25.5 µM | 11.1 µM
Nc1ccn([C@@H]2S[C@H](CO)[C@@H](O)[C@@H]2F)c(=O)n1 | > 100 µM | 1.02 µM
O=C(NN1C(=O)C(Cl)C1c1c(O)ccc2ccccc12)c1ccccc1O (stereo unspecified) | > 100 µM | 
CC(=O)OC1COC(Oc2c(C)c3c4c(c2O)[C@@H](C)CC[C@@H]4[C@@H](C)C[C@H]3C=C(C)C)C(O)C1O (stereo partly specified) | 27.4 µM | 13.6 µM
O=C1Nc2ccccc2C1S(=O)(=O)c1ccccc1 (stereo unspecified) | > 100 µM | 
CC1=C(C(=O)CC(=O)C(=O)Nc2ccccc2C)Sc2ccccc2N1 | > 100 µM | 
CN(c1ccc(NC(=O)NCCN2CCOCC2)cc1)c1ccnc(Nc2ccc(CS(C)(=O)=O)cc2)n1 | > 25 µM | > 25 µM
FC(F)(F)c1cnc(N/N=C(/c2ccccc2)c2ccccn2)c(Cl)c1 | 21 µM | 
CCOC(=O)C1=C(C)N(Cc2ccc(Cl)cc2Cl)[C@]2(C#N)C(O)=C(Cl)C(Cl)=C(O)[C@]12C#N | > 100 µM | > 100 µM
Nc1nc2c(c(=O)[nH]1)NC(CCNc1ccc(C(=O)O)cc1)CN2 (stereo unspecified) | > 100 µM | 
O=C(O)Cc1ccc(Oc2nc3ccccc3nc2-c2ccccc2)cc1 | > 100 µM | 
Clc1cccc2[nH]ncc12 | > 100 µM | 
O=c1c2ccccc2n2cnc3ccc(NCCNCCO)c1c32 | 5.41 µM | 
CC(=O)c1sc2c(c1O)c(=O)n(-c1ccccc1)c(=S)n2-c1ccccc1 | > 100 µM | 

Compound | TGI | GI50
CC1(C)CC(O)CC(C)(C)N1.CC1(C)CC(O)CC(C)(C)N1.CC1(C)CC(O)CC(C)(C)N1.CC1(C)CC(O)CC(C)(C)N1.Cl.[Ti] | > 100 µM | > 100 µM
Cc1cc(-c2ccco2)cc(C)c1/C=C/c1cncc(-c2nn[nH]n2)c1 | > 25 µM | > 25 µM
CCN(CC)Cc1cc(Nc2cc(C(F)(F)F)c(C#N)c3nc4ccccc4n23)ccc1O | 13.4 µM | 3.22 µM
Cn1c(=O)c(C(=O)NC23CC4CC(CC(C4)C2)C3)c(O)c2ccccc21 | 65 µM | 
C=C(C)[C@@H]1CC[C@]2(C(=O)n3ccnc3)CC[C@]3(C)[C@H](CC[C@@H]4[C@@]5(C)CCCNC(C)(C)[C@@H]5CC[C@]43C)[C@@H]12 | 14.9 µM | 2.94 µM
O=CC(O)C(O)C(OC1OC(CO)C(O)C(O)C1O)C(O)CO (stereo unspecified) (tested in a mixture with another compound) | > 100 µM | 
O=c1[nH]nc(Cc2ccccc2)n1C1CC1 | > 100 µM | 
Cc1ccccc1CNc1c2ccccc2nc2ccccc12 | 5.41 µM | 2.06 µM
O=c1c2cccc3cccc(c4n1CCCN=4)c32 | > 100 µM | 
Nc1c(C(=O)Nc2ccccn2)sc2nc3c(cc12)CCCCCC3 | 16.6 µM | 2.58 µM
CCOC(=O)[C@H]1Nc2c(cccc2[N+](=O)[O-])C2c3ccccc3CC21 (stereo partly specified) | > 100 µM | 
COc1cccc(Nc2nc(NS(=O)(=O)c3cc(C)c(Cl)cc3S)n[nH]2)c1 | > 100 µM | 
COc1ccc2c(C(=O)c3c(C)n(CCN4CCOCC4)c4ccccc34)cccc2c1 | > 100 µM | 
CCN(CC)C(=O)CCCCCn1c2ccccc2c2c3c(c4c5ccccc5[nH]c4c21)C(=O)N(O)C3=O | > 100 µM | 19.3 µM
Cc1ccc(C(=O)N2C/C(=C/c3ccccc3)C(=O)/C(=C/c3ccccc3)C2)cc1 | > 100 µM | > 100 µM
COC(=O)c1ccccc1/C=C1\Cc2ccc3ccccc3c2C1C (stereo unspecified) | > 100 µM | 
OC1CSCCSCCCSCCSC1 | > 100 µM | 
CCOC(=O)n1c2ccccc2c(=O)n1CCO | > 100 µM | 
O=C1c2ccccc2/C=C\C(c2ccccc2)=N/N1c1ccccc1Cl | > 100 µM | 
O=S(=O)(O)c1ccc2c(N=Nc3c(O)ccc4ccccc34)cccc2c1 | > 100 µM | 
CC(=O)Oc1ccc2cc(Oc3ccccc3)c(=O)oc2c1 | > 100 µM | 
CCN(CC)C(=S)SSCCO | > 100 µM | > 100 µM
O=C(Nc1nc2c(s1)CCc1c-2c(Br)n(Cc2ccccc2)c1Br)c1ccccc1 | > 100 µM | 3.63 µM
Cn1c(=O)n2n(c1=O)C(S(=O)c1ccccc1)C2 (stereo unspecified) | > 100 µM | 
